# Among all 310,000 compounds or so, about 2,200 (0.71%) showed an effect of 50% or more. The effect is printed as a negative number. Some of the results follow.
# Target: human ether-à-go-go-related gene (hERG) potassium channel (human, UniProt Q12809)
# Experiment: primary screen, population patch clamp on CHO cells stably expressing hERG
# Sequence of human ether-à-go-go-related gene (hERG) potassium channel (Q12809 whole entry, looked up): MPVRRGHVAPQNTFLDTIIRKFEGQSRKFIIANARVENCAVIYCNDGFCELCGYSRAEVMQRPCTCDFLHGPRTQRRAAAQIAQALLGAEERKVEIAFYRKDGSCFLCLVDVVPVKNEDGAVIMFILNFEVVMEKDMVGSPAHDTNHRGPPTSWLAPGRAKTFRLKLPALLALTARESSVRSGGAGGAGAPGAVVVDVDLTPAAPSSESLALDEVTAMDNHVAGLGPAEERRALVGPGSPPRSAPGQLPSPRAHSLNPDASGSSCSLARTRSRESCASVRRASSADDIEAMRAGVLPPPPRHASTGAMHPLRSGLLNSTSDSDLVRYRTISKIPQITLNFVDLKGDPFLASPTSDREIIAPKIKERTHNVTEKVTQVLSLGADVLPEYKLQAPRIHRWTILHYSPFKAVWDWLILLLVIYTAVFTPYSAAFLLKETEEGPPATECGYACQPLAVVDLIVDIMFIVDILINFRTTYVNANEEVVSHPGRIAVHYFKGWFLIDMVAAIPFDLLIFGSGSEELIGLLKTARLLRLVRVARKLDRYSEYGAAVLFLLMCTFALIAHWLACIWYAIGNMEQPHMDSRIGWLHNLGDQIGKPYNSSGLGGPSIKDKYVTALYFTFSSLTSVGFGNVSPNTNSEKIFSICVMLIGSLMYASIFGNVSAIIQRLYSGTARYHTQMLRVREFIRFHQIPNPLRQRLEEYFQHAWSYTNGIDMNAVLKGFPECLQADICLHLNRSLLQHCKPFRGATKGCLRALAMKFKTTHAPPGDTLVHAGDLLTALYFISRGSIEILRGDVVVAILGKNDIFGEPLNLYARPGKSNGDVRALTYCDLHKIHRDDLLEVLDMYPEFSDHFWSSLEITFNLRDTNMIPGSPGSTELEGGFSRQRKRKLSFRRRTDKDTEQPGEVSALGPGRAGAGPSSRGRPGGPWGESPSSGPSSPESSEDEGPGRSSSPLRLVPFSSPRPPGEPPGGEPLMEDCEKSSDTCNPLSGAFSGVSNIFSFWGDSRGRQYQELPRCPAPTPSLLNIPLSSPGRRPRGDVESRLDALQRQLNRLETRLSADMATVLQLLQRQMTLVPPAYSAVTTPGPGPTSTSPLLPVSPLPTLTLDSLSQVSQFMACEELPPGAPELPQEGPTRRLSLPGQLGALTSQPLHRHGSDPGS
row,Compound,"hERG current change (%, negative = inhibition) at 1uM [%]"
1,O=C(O)CNC(=O)c1ccc(NS(=O)(=O)c2ccc3ccccc3c2)cc1,13.2
2,CCOC(=O)c1c(C)[nH]c(C)c1C(=O)COC(=O)[C@@H]1CCCN1S(=O)(=O)c1ccc(Cl)cc1,9.05
3,CCOc1ccc(N(CC(=O)Nc2ccccc2C(=O)NC(C)CC)S(C)(=O)=O)cc1 (centres unmarked),8.87
4,CC(C)COP(=O)(c1ccc(N(C)C)cc1)C(O)c1ccncc1 (centres unmarked),-4.05
5,COc1ccc(N(CC(=O)NCc2ccc(C)cc2)S(=O)(=O)c2c(C)nn(C)c2C)cc1,0.192
6,CCOC(=O)Cn1nc(/C=C/c2ccc(OC)cc2)ccc1=O,-0.87
7,COCc1ccc2oc(C(=O)O)cc2c1,5.25
8,COc1ccc([C@H]2CC(=O)C=C(c3ccc(OC)cc3OC)C2)cc1,15.3
9,Cn1c(=O)c(=O)n(C)c2cc(N3CCCCC3)c(NS(=O)(=O)c3ccc([N+](=O)[O-])cc3)cc21,-0.114
10,CN(C(=O)COC(=O)c1cccc(NS(=O)(=O)c2ccc(F)c(F)c2)c1)C1CCS(=O)(=O)C1 (centres unmarked),4.54
11,C=CCNC(=S)NNC(=O)c1cc(C)nc2ccccc12,12.8
12,COc1ccc(C(=O)N/C(=C\c2cccc3ccccc23)C(=O)N2CCN(C)CC2)cc1OC,-6.21
13,O=C1c2c([N+](=O)[O-])cc([N+](=O)[O-])cc2S(=O)N1Cc1ccccc1 (centres unmarked),18.4
14,COc1ccc(S(=O)(=O)Nc2cccc(-c3ccc4nncn4n3)c2)cc1,14
15,CN1C(=O)C(O)(CC(=O)/C=C/c2ccco2)c2ccccc21 (centres unmarked),1.74
16,O=C1NC(=S)N(C2CC2)C(=O)/C1=C/c1ccc2c(c1)CCN2CCCCl,5.03
17,COc1ccccc1OCCSc1nc2ccccc2n1CC(O)CO (centres unmarked),9.57
18,CC(=O)Nc1ccc(S(=O)(=O)N2CCC(C(=O)c3ccc(F)cc3)CC2)cc1,-2.12
19,Cc1ccc(NC(=O)Nc2cccs2)nc1,11.6
20,O=C(/C=C\N1CCOCC1)c1ccc(Br)cc1,7.88
21,Cc1ccc(C(=O)NCCNC(=O)COc2ccc(Cl)cc2)cn1,12
22,CC1CCCCN1C(=O)CCS(=O)(=O)c1cccc2nonc12 (centres unmarked),9.42
23,Nc1nc2ccccc2n1/N=C/c1ccc2c(c1)OCO2,36.2
24,S=C(c1ccccc1)N(c1ccccc1)c1ccccc1,10.9
25,O=[N+]([O-])c1ccccc1NCc1ccc(Cl)cc1,-12.9
26,O=C(O)c1ccc(N2CC3CC(C2)c2cccc(=O)n2C3)c(NS(=O)(=O)c2cccc(C(F)(F)F)c2)c1 (centres unmarked),10.4
27,CC(C)C(c1nnnn1CC1CCCO1)N1CCN(C2CCCC2)CC1.Cl (centres unmarked),9.21

row,Compound,"hERG current change (%, negative = inhibition) at 1uM [%]"
1,COc1ccc(CNC(=O)CCNC(=O)N2CCn3c2nc2ccccc23)cc1,2.17
2,Cc1ccc(CN2CC(C(=O)N(Cc3nnc(-c4ccccc4Cl)o3)C3CC3)CC2=O)cc1 (centres unmarked),2.14
3,COc1cc(/C=C/C(=O)O)cc(S(=O)(=O)Nc2cc(Cl)c(Cl)cc2Cl)c1OC,12.9
4,Cn1c(C(=O)N2CCN(Cc3ccc4c(c3)OCO4)CC2)cc2c(=O)n(C)c3ccccc3c21,9.24
5,CSc1ccccc1NC(=O)CN(c1ccccc1)S(=O)(=O)N(C)C,3.51
6,Cc1ccc2[nH]cc(S(=O)(=O)c3ccc(C)c(C)c3)c(=O)c2c1,19.9
7,COc1ccc(OCC(=O)O/N=C(\N)c2ccc(OC)cc2)cc1,7.07
8,C/C(=N/NC(=O)c1ccc(Br)s1)c1ccncc1,7.18
9,COCCCNc1nc2nonc2nc1NCCSC,2.32
10,CS(=O)(=O)c1ccc(C(=O)Nc2ccc(N3CCCC3)cc2)c(Cl)c1,21.4
11,O=C(Oc1ccccc1)c1ccc2c(c1)C(=O)N(Cc1ccncc1)C2=O,2.13
12,Cc1nn(CC(=O)N2CCN(c3cccc(C(F)(F)F)c3)CC2)c(=O)c2cccn12,-1.82
13,COc1cccc(C(=O)NCC2(c3ccccc3)CCCC2)c1OC,9.34
14,Cc1cccc(C)c1Nc1nnc(SCC(=O)Nc2cc(S(=O)(=O)N3CCCCC3)ccc2Cl)s1,13.8
15,O=C(NN1CCOCC1)c1ccc(Br)s1,5.3
16,COc1ccc(/C=N/NC(=O)c2ccc(CN3c4cccc5cccc(c45)S3(=O)=O)cc2)cc1,3.65
17,O=C(CCc1ccccn1)N1CCCC(CNS(=O)(=O)c2cccs2)C1 (centres unmarked),16.4
18,OC1(c2ccc3c(c2)OCO3)CCN(Cc2ccccn2)CC1,7.76
19,Cc1ccccc1S(=O)(=O)Cc1ccc(C(=O)N2CCN(c3ncccn3)CC2)o1,3.93
20,CC(=O)Nc1ccc(NC(=O)CSc2nccn2Cc2ccccc2)cc1,10.5
21,COc1ccc(N2C(=O)N3[C@H](c4ccc(Br)cc4)[C@@H]4C(=O)N(C(C)(C)C)C(=O)[C@@H]4[C@]3(Cc3ccccc3)C2=O)cc1,4.5
22,COC(=O)CSc1nnc(CNC(=O)Cc2ccccc2)n1-c1ccccc1OC,1.77
23,O=C(CSc1nnc(-c2c[nH]c3ccccc23)o1)N1c2ccccc2CCc2ccccc21,19.7
24,Cc1cc(=O)oc2c1ccc1oc(/C(=N/O)c3ccccc3)c(C)c12,12.3
25,O=C(N/N=C/c1cccc(OCC(=O)N2CCCC2)c1)C(=O)Nc1ccccc1F,-8.52
26,CC(C)(C)C(=O)N(Cc1ccc(Cl)cc1)c1cnccn1,7.39
